For part of its entries the source gives two or more results. This is not the full list of results. An entry can have further records. Values that stand side by side repeat one measurement (runs, samples, wells, individuals or studies). Counts like (3×) count equal records among those shown. A date in brackets names the month of the test.
Tested on: HSSY-II complex spheroid growth, percent test/control
Experiment: Anticancer human tumor HSSY-II cell line growth inhibition [Asc];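 note: spheroids exposed to drug for 7 days before reading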
Details: stronger effect = lower value
Description: Multicellular complex tumor spheroid response to apoptosis pathway targeting inhibitors Alrizomadlin, Pelcitoclax, and Dasminapant in combination with a variety of drugs and investigational agents in selected tumor cell lines
The MDM2 inhibitor alrizomadlin, the Bcl-2/Bcl-xL inhibitor pelcitoclax, and the IAPs inhibitor dasminapant were evaluated both individually and in combination with standard of care and investigational anticancer small molecules within a complex spheroid model of solid tumors. . Complex spheroids include a stromal component modeled by human endothelial cells (HUVEC) and fibroblasts modeled by human mesenchymal stem cells (MSCs). The concentration ranges selected for each drug and investigational agent were based upon clinically achievable concentrations if the clinical Cmax of the agent was known.
Compounds. The drugs and investigational agents: alrizomadlin (APG-115; NSC831270), pelcitoclax (APG-1252; NSC835773), dasminapant (APG-1387;NSC834197), TAK-243 (NSC785004), copanlisib (NSC809693), olaparib (NSC753686), talazoparib (NSC767125), cobimetinib (NSC 768068), eltanexor (KPT-8602, NSC 794443), abemaciclib (NSC 768073), sotorasib (NSC818433), adagrasib (NSC 831453), MRTX-1133 (NSC 836407), Iadademestat (ORY1001, NSC 806812), and RMC-4630 (NSC839698), were obtained from the NCI Developmental Therapeutics Program Chemical Repository. The FDA-approved anticancer drug set is available from the Developmental Therapeutics Program at https://dtp.cancer.gov/organization/dscb/obtaining/available plates.htm. […] The stock solutions were prepared in dimethyl sulfoxide (DMSO, Sigma-Aldrich, St. Louis, MO, cat. D2650) at 800-fold the tested concentration and stored at -70 degrees C prior to their use. All drugs and investigational agents were tested over a range starting from a high concentration at or near the clinical Cmax and decreasing in half-log increments. If the clinical Cmax for an agent had not been determined, the highest concentration tested was 10 microM.
The patient-derived cancer (PDC) cell lines include five colon adenocarcinomas: 186277-243-T-J2-PDC, 616215-338-R-J1-PDC, 439559-082-T-J2-PDC, 463943-066-T-J2-PDC, and 519858-162-T-J1-PDC; three pancreatic carcinomas: 323965-272-R-J2-PDC, 521955-158-R6-J3-PDC, and 521955-158-R2-J5-PDC; two uterine sarcomas: 327498-152-R-J2-PDC and 993429-296-R-J1-PDC; two rhabdomyosarcomas: 755483-174-R-J1-PDC and 772245-204-R-J1-PDC; two soft tissue sarcomas: 126254-015-R-J1-PDC and 494315-158-R-J1-PDC; two malignant fibrous histiocytomas: 317291-083-R-J1-PDC and 596521-263-R-J1-PDC; two breast carcinomas: 171881-019-R-J1-PDC and 885512-296-R-J2-PDC; and one ovarian carcinoma: 6556581-035-R-J-PDC were obtained from the NCI PDMR, (https://pdmr.cancer.gov). The established cell lines HSSY-2 synovial sarcoma (RRID:CVCL 8719), SYO-1 synovial sarcoma (RRID:CVCL_7146), MPNST malignant peripheral neural sheath tumor were obtained from the Sloan Kettering Institute. The following established cell lines were purchased from the American Type Culture Collection (ATCC, Manassas, VA), Sor the received from the NCI repository:, PANC-1 pancreatic carcinoma (CRL-1469, RRID:CVCL_0480), OVCAR-5 ovarian carcinoma (RRID:CVCL_1628), OVCAR-8 ovarian carcinoma (RRID:CVCL_1629), , MCF-7 breast carcinoma (CRL-12584, RRID:CVCL_0031), MDA-MB-231 breast carcinoma (CRL-12532, RRID:CVCL_0062), NCI-H1876 small cell lung carcinoma (CRL-5902, RRID:CVCL_1503), NCI-H510A small cell lung carcinoma (HTB-184, RRID:CVCL_1565), NCI-H1417 (CRL-5869, RRID:CVCL_1469), and NCI-H196 small cell lung carcinoma (CRL-5823, RRID:CVCL_1509). Dr. Peter Houghton (Greehey Children's Cancer Research Institute, University of Texas Health Science Center, San Antonio, TX) provided Rh-18 rhabdomyosarcoma (RRID:CVCL_1659). Pooled donor human umbilical vein endothelial cells (HUVEC, Lonza, cat. CC-2519) and human mesenchymal stem cells (hMSC, Lonza, cat. PT-2501) were purchased from Lonza (Walkersville, MD).
Cell Culture. […]

SMILES	viability, T/C (compound alone 0.01 µM)	viability, T/C (compound alone 0.1 µM)	viability, T/C (compound alone 0.316 µM)	viability, T/C (compound alone 1 µM)	viability, T/C (compound alone 3.16 µM)	viability, T/C (compound alone 10 µM)
CNC(C)C(=O)NC1CN(S(=O)(=O)c2cccc(S(=O)(=O)N3CCC4CCC(C(=O)NC(c5ccccc5)c5ccccc5)N4C(=O)C(NC(=O)C(C)NC)C3)c2)CCC2CCC(C(=O)NC(c3ccccc3)c3ccccc3)N2C1=O (centres undefined)	90.3, 102, 96.3, 92.7, 92.6, 74.1, 76.6, 78.2, 84.1, 84.6, 84.7, 88.6, 84.3% [2022-10] and 101% [2022-11]	87.7, 96.5, 98.4, 88.6, 71.6, 75.5, 85.9, 72.4, 84, 98.6, 93.8, 86.2, 89% [2022-10] and 102% [2022-11]	90.8, 93.3, 84.1, 102, 85.6, 84.2, 79, 82.8, 92.3, 93.7, 80.8, 90.5, 74.1% [2022-10] and 101% [2022-11]	85.5, 84.6, 91.7, 78, 70.7, 91.1, 82.5, 87.6, 97, 86.2, 85.2, 86.8, 79.9% [2022-10] and 98.7% [2022-11]	–	–
Cc1c(S(C)(=O)=O)c(-c2cc(F)cc(N3CCN(c4ccc(NS(=O)(=O)c5ccc(NC(CCN6CCC(C(=O)OCCCP(=O)(O)O)CC6)CSc6ccccc6)c(S(=O)(=O)C(F)(F)F)c5)cc4)CC3)c2)c(-c2ccc(Cl)cc2)n1C(C)C (centres undefined)	–	98.9, 97.8, 106, 107, 105 (2×), 97.5, 115, 96.5, 100, 104, 103, 95.8, 68.9%	91.5, 92.5, 99.4, 102, 86.8, 92.9, 98.1, 89.6, 107, 104, 96.7, 110, 99.2, 60.6%	101 (2×), 96.4, 98.6, 95.8, 92.3, 103, 96.3, 97.7, 104, 94.3, 110, 94, 56.1%	92.2, 87.1, 98, 92, 104, 91, 102, 99.4, 97.4, 97.1, 90.8, 96.6, 107, 51%	81.5, 81.1, 86.7, 93.6, 101 (2×), 90.3, 97.5, 107, 89.2, 103, 98.7, 97.1, 38.2%

Reference: PubChem BioAssay AID1963444 (Molecular Pharmacology Branch, DTP, NCI, 2024)
